# Test results reported in paper PMC4336329 (PLoS ONE, 2015).
# Hit rate of the full screen: of about 310,000 compounds, about 14,000 (4.5%) showed an effect of 50% or more. Effects have a minus sign here. This is one part of the list.
# Target: human ether-à-go-go-related gene (hERG) potassium channel (human, UniProt Q12809)
# Test: primary screen, population patch clamp on CHO cells stably expressing hERG
# 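Also: peak tail current of the secondary pulse compared with the same well before compound.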
# Chain of human ether-à-go-go-related gene (hERG) potassium channel (Q12809 whole entry, looked up): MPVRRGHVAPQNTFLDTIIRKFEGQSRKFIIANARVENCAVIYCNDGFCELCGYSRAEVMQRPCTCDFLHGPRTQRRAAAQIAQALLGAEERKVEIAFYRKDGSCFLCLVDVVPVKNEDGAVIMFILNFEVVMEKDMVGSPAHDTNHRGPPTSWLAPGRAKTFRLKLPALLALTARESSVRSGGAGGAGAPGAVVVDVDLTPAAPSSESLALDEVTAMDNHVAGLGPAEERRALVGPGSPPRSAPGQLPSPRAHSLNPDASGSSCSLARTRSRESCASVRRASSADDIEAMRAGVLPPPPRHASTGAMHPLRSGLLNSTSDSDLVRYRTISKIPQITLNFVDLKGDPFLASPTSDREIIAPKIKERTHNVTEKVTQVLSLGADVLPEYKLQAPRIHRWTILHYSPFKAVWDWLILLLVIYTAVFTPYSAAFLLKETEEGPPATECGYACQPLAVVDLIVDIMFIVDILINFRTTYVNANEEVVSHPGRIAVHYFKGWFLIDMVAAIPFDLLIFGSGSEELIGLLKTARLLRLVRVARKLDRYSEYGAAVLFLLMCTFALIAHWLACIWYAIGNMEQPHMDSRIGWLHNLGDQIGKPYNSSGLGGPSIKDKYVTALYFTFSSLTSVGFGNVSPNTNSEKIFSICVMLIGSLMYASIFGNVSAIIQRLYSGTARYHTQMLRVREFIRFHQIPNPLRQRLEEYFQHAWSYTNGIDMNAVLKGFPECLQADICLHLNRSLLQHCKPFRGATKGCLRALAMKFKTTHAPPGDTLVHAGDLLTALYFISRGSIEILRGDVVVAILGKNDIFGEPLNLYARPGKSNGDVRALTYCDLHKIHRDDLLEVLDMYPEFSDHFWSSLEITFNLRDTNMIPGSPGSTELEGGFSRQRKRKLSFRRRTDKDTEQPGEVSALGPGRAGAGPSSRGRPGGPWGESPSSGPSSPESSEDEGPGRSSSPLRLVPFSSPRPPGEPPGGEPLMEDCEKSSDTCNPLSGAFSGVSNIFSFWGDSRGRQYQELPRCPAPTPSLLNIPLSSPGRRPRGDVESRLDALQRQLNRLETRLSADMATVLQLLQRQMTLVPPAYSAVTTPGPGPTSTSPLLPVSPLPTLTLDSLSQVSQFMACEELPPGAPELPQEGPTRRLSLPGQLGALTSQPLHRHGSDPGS
row,Structure (SMILES),"hERG current change (%, negative = inhibition) at 10uM [%]"
1,O=S1(=O)CCC(NS(=O)(=O)/C=C/c2ccccc2)C1 (centres unmarked),-0.272
2,COc1cc(OC)c(NC(=O)CCNC(=O)Cn2ccc3ccccc3c2=O)cc1Cl,7.45
3,CC(C)(C)n1nc(-c2ccc(Cl)cc2)c2c(N)ncnc21,13
4,N#Cc1ccc(C(=O)OCC(=O)NC(=O)NC2CCCCC2)cc1,8.67
5,Cc1cc(NC(=O)/C=C/C(=O)N(CC(=O)NC2CCCC2)c2cccc3ccccc23)no1,-3.79
6,CCC(C)(C(=O)NC1CCCCC1)N(Cc1cccs1)C(=O)CC1NC(=O)NC1=O (centres unmarked),-1
7,COc1ccccc1N1CCN(C(=O)C(C)N(c2ccc(C)c(C)c2)S(C)(=O)=O)CC1 (centres unmarked),-6.79
8,Cc1cc(OCC(=O)N2CCC[C@@H]2C(=O)O)c2c(C)c(C)c(=O)oc2c1,7.84
9,CN1C(=O)C(=CN2CCN(C(=O)c3ccco3)CC2)C(=O)N(C)C1=S,3.18
10,O=C(NNC(=O)c1cc2cc(Br)ccc2oc1=O)c1ccc(O)cc1O,35.4
11,CCC(=O)Oc1c(S(=O)(=O)c2ccc(C)cc2)c(C)nn1C(C)(C)C,-8.98
12,CCOC(=O)c1cc2n(c1/N=C/N(C)C)-c1ccccc1C2=O,2.49
13,COc1ccc(-c2cc(C)no2)cc1S(=O)(=O)N1CCOc2ccc(Cl)cc21,7.56
14,Cc1ccc(-c2nnc(-c3cccc(Br)c3)o2)cc1,13.3
15,CCOC(=O)c1ccc(NS(=O)(=O)c2cc3c4c(c2)CCN4C(=O)CC3)cc1,-9.74
16,O=C1COc2ccc(S(=O)(=O)CCC(=O)NC3CCCCC3)cc2N1,11.8
17,Cn1c(CNC(=O)CNS(=O)(=O)c2ccccc2)cc(=O)n(C)c1=O,26.2
18,Cc1ccc(C(=O)NCCOc2ccc(Cl)cc2)cc1,1.42
19,Br.CC(=O)c1sc(Nc2ccccn2)nc1C,6.59
20,Cc1[nH]c2ccccc2c1C(=O)CSC(=S)N(C)C,18.8
21,O=S(=O)(c1ccc(F)cc1)n1ccc(-c2cccc(OCc3c(F)cccc3Cl)c2)n1,-0.413
22,COc1ccc(NC(=O)N2CCNC(=O)C2CC(=O)Nc2ccc(F)cc2)cc1 (centres unmarked),17.1

row,Structure (SMILES),"hERG current change (%, negative = inhibition) at 10uM [%]"
1,Cc1ccc(C)c(N2CCN(c3cnn(-c4nc5ccccc5s4)c(=O)c3Cl)CC2)c1,-13.8
2,CC(C)Oc1ccc(OCCNC2CCCC2)cc1,-18.3
3,C/C(=N\OCC(=O)OCC(=O)NCc1ccccc1)c1ccc2c(c1)OCO2,-5.72
4,Cc1ccc2nc(NC(=O)c3ccc(S(=O)(=O)N4CCCc5ccccc54)cc3)sc2c1,-3.33
5,O=C(COc1ccc2ccccc2c1)NNC(=O)c1ccc([N+](=O)[O-])cc1,-1.08
6,Cc1oc(C(=O)O)cc1COc1ccc2c3c(c(=O)oc2c1C)CCC3,9.21
7,COc1cc(/C=C/C(=O)NCCc2ccc(S(N)(=O)=O)cc2)ccc1OCC#N,14.8
8,CC(C)N(C(=O)CSc1ccc(S(=O)(=O)N2CCCCC2)cn1)c1ccccc1,-14.1
9,O=C(CCc1nc(-c2ccccc2)c(-c2ccccc2)o1)OCc1ccc(Br)cc1,21.4
10,CN(Cc1ccc(F)cc1)C(=O)c1cccc(OCc2ccccc2)c1,-16.9
11,O=C(NCc1cccnc1)C1CC(=O)N(c2ccc(F)cc2)C1 (centres unmarked),-15.1
12,O=C(NNC(=O)c1ccc2ccccc2c1O)NC1CCCCC1,21.9
13,CCc1ccc(NC(=O)C(=O)NNC(=O)c2cccs2)cc1,-1.68
14,CCN(CC(=O)Nc1ccc(NC(C)=O)cc1)CC(=O)Nc1cccc(Cl)c1,-5.97
15,COc1ccc(-c2cc(=O)[nH]c(=O)[nH]2)cc1,-3.74
16,Cn1cnnc1Sc1ccc(/C=C/C(=O)c2ccc(O)cc2)cc1[N+](=O)[O-],-0.376
17,COc1ccc([N+](=O)[O-])cc1N(CC(=O)Nc1ccccc1C(=O)N1CCCC1)S(C)(=O)=O,-0.288
18,O=C(CSc1nnc(-c2cccnc2)n1Cc1ccccc1)NCc1ccccc1,-14.1
19,O=C1c2ccccc2C(Nc2ccc(Cl)cn2)N1c1ccccn1 (centres unmarked),-6.43
20,Cc1ccc(NC(=O)CCCCCCCCCCC2COCCO2)c(C)c1 (centres unmarked),11.8
21,Cn1ccnc1SC(=O)N1c2ccccc2Sc2ccccc21,-3.05
22,CC(=O)N1CC(=O)N=C1SCC(=O)Nc1nc(-c2ccccc2)c(-c2ccccc2)s1,-47.2

row,Structure (SMILES),"hERG current change (%, negative = inhibition) at 10uM [%]"
1,CC1CCN(S(=O)(=O)c2ccc3c(c2)N(CC(=O)NCCCN2CCCCC2C)C(=O)CS3)CC1 (centres unmarked),0.668
2,COC(=O)c1nn(-c2ccccc2)nc1-c1nn(-c2ccccc2)nc1C(=O)OC.Cl,1.21
3,O=C(OC(C(=O)NCc1ccco1)c1ccc(Cl)cc1)c1cccs1 (centres unmarked),17.6
4,O=C(COc1ccc(Cl)cc1)NNC(=O)c1ccncc1,-16.6
5,O=C(OCc1cccc(F)c1)c1ccc2c(c1)-c1ccccc1C2=O,-4.96
6,C/C(=C1/SC(N2CCCC2)=NC1=O)c1ccc(Br)cc1,-76.7
7,CCc1c(C)[nH]c(=S)c(C#N)c1C,13.8
8,CCCC1Oc2ccccc2C(=O)N(CC(=O)c2ccc3c(c2)OCCO3)C1=O (centres unmarked),14.1
9,CC(C)Cc1ccc(CN2CCCC(NC(=O)c3cccc(-n4cnnc4)c3)C2)cc1 (centres unmarked),-81
10,Cc1ccc2nc(N3C(=O)C(O)=C(C(=O)c4ccco4)C3c3cccs3)sc2c1.O=C(O)C(=O)O (centres unmarked),-5
11,CC(=O)Oc1cc2c(C(C)=O)coc2c2ccccc12,-1.54
12,O=C(CCc1ccccc1)NNC(=O)COc1ccc(Br)cc1,26.6
13,O=C(Nc1ccc(S(=O)(=O)Nc2ncccn2)cc1)c1ccc(Cl)c([N+](=O)[O-])c1,12.6
14,O=C(c1cccc(-c2ccccc2)c1)N1CC[C@@H](N2CCC(O)CC2)[C@H](O)C1,-16.2
15,CCOC(=O)c1c(-c2cccs2)csc1NC(C)=O,-1.29
16,CCOC(=O)C1=C(N)OC2=C(C(=O)CC(C)(C)C2)C1c1cccs1 (centres unmarked),-11.6
17,CC(Nc1nc(N2CCCC2)nc2ccccc12)c1ccccc1 (centres unmarked),-79.2
18,COc1ccc(CN2CCN(C(=O)C3CCN(S(=O)(=O)c4cccs4)CC3)CC2)c(OC)c1OC,-5.17
19,CC(C)N(Cc1cnn(C)c1)C(=O)c1ccc(OC2CCN(Cc3ccccn3)CC2)cc1,7.84
20,COC(=O)c1ccc(CSc2nc3ccc(C)cc3[nH]2)o1,3.55
21,O=C(O)/C=C/c1cn(-c2ccccc2)nc1-c1cccc([N+](=O)[O-])c1,18
22,Cc1ccc2[nH]c(C(=O)N/N=C/c3ccccc3C(=O)O)c(-c3ccccc3)c2c1,7.67

row,Structure (SMILES),"hERG current change (%, negative = inhibition) at 10uM [%]"
1,Cc1nn(CCOc2cccc(Cl)c2)c(C)c1[N+](=O)[O-],25.7
2,CC[C@H](NC(=O)c1c(C)c(-c2ccccc2)nc2ccccc12)c1ccccc1,19.1
3,COc1ccc(OC)c(-c2csc(N(C)C(=O)c3ccco3)n2)c1,3.36
4,COCCN(C(=O)Nc1ccccc1)C(C)c1cccnc1 (centres unmarked),6.61
5,N#CC1(NC(=O)CSc2nnc(C3CC3)n2C2CC2)CCCCC1,-8.52
6,CN(C)S(=O)(=O)Nc1ccc(NS(=O)(=O)N(C)C)c(S(=O)(=O)c2ccccc2)c1,-3.79
7,CC(=O)NCCc1c(C)n(Cc2ccccc2)c2ccccc12,-4.31
8,Cc1cc(CCN2CCC(=O)NC2=S)ccc1OC(C)C,-3.4
9,COc1cc(NC(=O)CCCc2c[nH]c3ccccc23)cc(OC)c1,3.51
10,CCCOC(=O)CC1C(=O)NCCN1Cc1ccc(F)cc1 (centres unmarked),3.35
11,O=C(Nc1ccc(-c2csc(Nc3cccc(C(F)(F)F)c3)n2)cc1)c1ccccc1,18.7
12,COc1ccc(-n2cnc3cc(C(=O)N4CCOCC4)ccc32)cc1,-15.6
13,COC(=O)c1ccc(CSc2nnc(N)s2)cc1,-4.61
14,COC(=O)CNC(=O)c1ccc(F)cc1,15.1
15,N=c1c(S(=O)(=O)c2ccc(Cl)cc2)cc2c(=O)n3ccccc3nc2n1CCc1ccccc1,4.68
16,COc1ccc(CNC(=O)CCCC2=NS(=O)(=O)c3ccccc3N2)cc1,23.5
17,O=C(NC(=S)NNC(=O)c1ccccc1O)c1cccnc1,23.1
18,COc1ccccc1OCCCOc1c(Cl)cc(C)cc1Cl,19.2
19,Cc1ccnn1CC(=O)N/N=C/c1ccco1,-7.8
20,O=C(NC1CCSc2ccccc21)c1cccc([N+](=O)[O-])c1 (centres unmarked),-21.1
